Results are given in words; binding and its absence hold for the method and conditions named. In cells and extracts the contact can be indirect. Some results given as binding are weak or reduced against the parent protein; the word gives no strength. For some assays here: Tags and fused reporters may be left off the sequences shown. One block for each binder: values may come before it.
What was measured:
[1] = target: T1, SGT1, endogenous in U2OS cells (human (endogenous in U2OS)) (UniProt Q9Y2Z0); assay: co-IP; endogenous proteins in U2OS cell lysate; antibody against necdin or SGT1 or control IgG, protein G agarose, immunoblot
T1 sequence: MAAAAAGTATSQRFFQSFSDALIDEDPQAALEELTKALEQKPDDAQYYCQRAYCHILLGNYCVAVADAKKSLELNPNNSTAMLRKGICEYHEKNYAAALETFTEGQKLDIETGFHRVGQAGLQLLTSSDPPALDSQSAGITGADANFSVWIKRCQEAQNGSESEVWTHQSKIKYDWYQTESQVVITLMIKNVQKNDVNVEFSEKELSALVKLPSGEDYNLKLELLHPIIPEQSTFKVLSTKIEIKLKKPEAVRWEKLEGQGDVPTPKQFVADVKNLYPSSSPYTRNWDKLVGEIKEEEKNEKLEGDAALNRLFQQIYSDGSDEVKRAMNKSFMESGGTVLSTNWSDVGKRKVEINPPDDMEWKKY

Protein sequences, listed by entry. Tags and fused reporters are not part of them.
UniProt Q9WTL8: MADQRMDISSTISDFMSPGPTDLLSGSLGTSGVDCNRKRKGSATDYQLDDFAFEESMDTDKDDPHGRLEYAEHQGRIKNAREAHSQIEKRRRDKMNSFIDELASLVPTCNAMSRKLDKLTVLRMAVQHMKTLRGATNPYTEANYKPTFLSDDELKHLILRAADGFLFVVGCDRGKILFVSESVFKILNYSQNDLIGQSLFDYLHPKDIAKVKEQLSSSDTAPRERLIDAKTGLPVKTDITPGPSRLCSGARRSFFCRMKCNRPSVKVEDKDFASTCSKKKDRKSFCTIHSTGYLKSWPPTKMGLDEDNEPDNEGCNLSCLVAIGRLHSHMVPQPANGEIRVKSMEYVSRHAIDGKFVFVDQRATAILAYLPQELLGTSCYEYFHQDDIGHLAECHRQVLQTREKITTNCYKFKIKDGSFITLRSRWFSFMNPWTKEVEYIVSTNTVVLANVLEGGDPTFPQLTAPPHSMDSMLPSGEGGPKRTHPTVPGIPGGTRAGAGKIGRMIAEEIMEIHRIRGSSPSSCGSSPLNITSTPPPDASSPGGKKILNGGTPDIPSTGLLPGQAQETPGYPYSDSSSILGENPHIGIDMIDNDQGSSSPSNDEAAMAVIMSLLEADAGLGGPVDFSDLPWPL

HA-tagged BMAL1 = HA-tagged BMAL1 (UniProt Q9WTL8); assay: co-IP; two tagged proteins co-expressed in HEK293T cells; lysis buffer 150 mM NaCl, 1% NP-40, 2 mM EDTA, 50 mM Tris pH 8.0; antibody to the tag overnight at 4 C, protein G agarose, immunoblot
HA-tagged SGT1 = target: T2, HA-tagged SGT1 (UniProt Q9CX34); assay: as above
T2 sequence: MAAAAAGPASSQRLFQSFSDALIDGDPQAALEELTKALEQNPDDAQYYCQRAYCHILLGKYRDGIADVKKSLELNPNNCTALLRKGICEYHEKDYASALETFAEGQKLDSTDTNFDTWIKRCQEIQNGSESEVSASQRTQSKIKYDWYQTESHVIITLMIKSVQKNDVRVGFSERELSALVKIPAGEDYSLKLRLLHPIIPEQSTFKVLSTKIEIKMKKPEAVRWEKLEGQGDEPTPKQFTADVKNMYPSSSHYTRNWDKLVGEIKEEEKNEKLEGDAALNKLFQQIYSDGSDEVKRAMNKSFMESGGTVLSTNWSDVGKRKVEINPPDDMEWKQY

[2] = target: T3, FLAG-tagged necdin fragment, amino acids 190-325 (UniProt P25233); assay: as above
T3 sequence: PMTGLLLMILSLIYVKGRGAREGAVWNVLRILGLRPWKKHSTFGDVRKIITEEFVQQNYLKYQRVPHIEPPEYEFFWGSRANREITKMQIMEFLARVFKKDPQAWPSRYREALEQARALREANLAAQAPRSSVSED

[3] = target: T4, FLAG-tagged necdin, full length (UniProt P25233); assay: as above
T4 sequence: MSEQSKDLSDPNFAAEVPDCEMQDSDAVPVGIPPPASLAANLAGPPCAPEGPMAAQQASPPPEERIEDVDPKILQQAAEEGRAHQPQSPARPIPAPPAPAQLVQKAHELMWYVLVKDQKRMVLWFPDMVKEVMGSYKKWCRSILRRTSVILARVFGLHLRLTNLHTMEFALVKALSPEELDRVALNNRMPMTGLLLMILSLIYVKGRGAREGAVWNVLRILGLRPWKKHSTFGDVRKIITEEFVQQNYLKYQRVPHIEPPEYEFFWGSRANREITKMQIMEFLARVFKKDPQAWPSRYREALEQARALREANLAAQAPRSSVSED

binding [1]: binds
B1: necdin, endogenous in U2OS cells (protein, UniProt Q99608 1-321)
chain: MSEQSKDLSDPNFAAEAPNSEVHSSPGVSEGVPPSATLAEPQSPPLGPTAAPQAAPPPQAPNDEGDPKALQQAAEEGRAHQAPSAAQPGPAPPAPAQLVQKAHELMWYVLVKDQKKMIIWFPDMVKDVIGSYKKWCRSILRRTSLILARVFGLHLRLTSLHTMEFALVKALEPEELDRVALSNRMPMTGLLLMILSLIYVKGRGARESAVWNVLRILGLRPWKKHSTFGDVRKLITEEFVQMNYLKYQRVPYVEPPEYEFFWGSRASREITKMQIMEFLARVFKKDPQAWPSRYREALEEARALREANPTAHYPRSSVSED

binding (HA-tagged BMAL1): binds
binding (HA-tagged SGT1): binds
B2: FLAG-tagged necdin, full length (protein, UniProt P25233 1-325)
chain: T4 sequence

binding [2]: binds
binding [3]: binds
B3: HA-tagged SGT1 (protein, UniProt Q9CX34 1-336)
chain: T2 sequence

Reference: PMC7430654
